Source: PubChem BioAssay AID1457 (National Center for Advancing Translational Sciences (NCATS), 2008)
The whole screen tested about 210,000 compounds, of which about 730 (0.35%) were called active. This list was built around the results that the source calls inconclusive (neither active nor inactive); the mix of calls is not that of the screen. The call rests on the fitted dose curve; in most records, active means well fitted inhibition curve with a large enough effect; inconclusive means small, poorly fitted or top-dose-only effect; inactive means no such curve, though single readings can be large or run the other way. Where the call is inconclusive, the potency comes from a doubtful curve fit.

Test: qHTS Assay for Identifying the Cell-Membrane Permeable IMPase Inhibitors: Potentiation with Lithium; further: nearly all actives have a fitted effect of over 50% in size;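 on activity, negative = IMPase inhibition: plate controls were basal vehicle for no effect and high inhibitor control for full effect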
Settings: CHO-M1 cells, IP1 TR-FRET (IP-One), carbachol + lithium; series mostly up to 59.4 µM; activity, negative = IMPase inhibition: at the top concentration
How it was run: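 Lithium-sensitised IP1 accumulation assay; M1-expressing CHO cells treated 30 min at 37C with compound. Competitive antibody detection by time-resolved FRET followed a 10 min room-temperature lysis step.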
Potency means the concentration at half of the fitted maximal effect.

| Structure (SMILES) | Potency | activity, negative = IMPase inhibition |
| --- | --- | --- |
| O=C(CSc1nnc(-c2cccs2)n1-c1ccccc1)Nc1ccccc1 | inconclusive: 28.2 µM [inhibitor, single point] | – |
| O=c1c(-c2cc(F)cc(F)c2)nc2cnc(N3CCOCC3)nc2n1C1CC1 | active: 8.91 µM | – |
| COc1cccc(OC(C)c2ccnc3nc(/N=C/N(C)C)nn23)c1 (centres undefined) | inconclusive: 28.2 µM [inhibitor, single point] | – |
| Cc1oc(CC(C)C)c(CN)c1C(=O)O | inconclusive: 12.6 µM [inhibitor, single point] | – |
| COc1ccc(OCCSc2nc3ccccc3n2CC(=O)O)cc1 | – | inactive: 18.9% [at 38.3 µM] |
| O=C(CCCCCn1c(=S)[nH]c2ccc(N3CCOCC3)cc2c1=O)NCc1cccc(Cl)c1 | inconclusive: 28.2 µM [inhibitor, single point] | – |
| COc1ccccc1[C@H]1C(c2ccc(F)cc2)=NN(c2ccccc2)[C@@H]1CO | inconclusive: 35.5 µM [inhibitor, single point] | – |
| O=C(NCc1cc(F)cc2c1OCCO2)[C@H]1C[C@@H]1[C@H](NP(=O)(c1ccccc1)c1ccccc1)c1ccccc1 | – | inactive: 0.292% |
| CNc1nc(-c2ccccc2)cc(C(F)(F)F)c1C#N | inconclusive: 7.08 µM [inhibitor, partial curve] | – |
| O=C(COc1ccccc1)NC(=S)Nc1ccc2c(c1)Cc1ccccc1-2 | inconclusive: 14.1 µM [inhibitor, single point] | – |
| C=CCNC(=O)c1onc(CCl)c1C(=O)OC | – | inactive: -5.41% [at 38.3 µM] |
| CCOC(=O)CCc1c(C)c2ccc(O)cc2oc1=O | inconclusive: 10 µM [inhibitor, single point] | – |
| c1cc(CNC2C3CC4CC(C3)CC2C4)ccn1 (centres undefined) | – | inactive: 10.4% |
| COc1cccc(CC(=O)N2CCc3nc(-c4ccccc4)c4c(c3C2)CO[C@@H](C)C4)c1 | – | inactive: -0.387% |
| Cc1ccc2nc(SCc3nnc(-c4ccccc4[N+](=O)[O-])o3)c(C#N)cc2c1 | inconclusive: 28.2 µM [inhibitor, single point] | – |
| CCCCC(=O)Nc1ccc(C(=O)Nc2ccc(S(=O)(=O)N3CCCC3)cc2)cc1 | inconclusive: 28.2 µM [inhibitor, single point] | – |
| Cc1ccc(CNC(=O)Cn2c(=O)n(-c3ccccc3)c(=O)c3sccc32)cc1 | – | inactive: -5.95% |
| Cc1ccc(NC(=O)Cn2cc(S(=O)(=O)c3ccc(F)cc3)c(=O)c3cc(F)ccc32)cc1 | inconclusive: 28.2 µM [inhibitor, single point] | – |
| COc1ccc(-n2c(C)nc3cc(C(=O)NCc4ccc5c(c4)OCO5)ccc32)cc1 | – | inactive: -0.193% |
| Cc1cc(C)c2c(n1)nn1c(N3CCN(c4ccccc4)CC3)cc(C)nc21 | inconclusive: 28.2 µM [inhibitor, single point] | – |
| O=c1oc2ccccc2c(NCc2ccccc2F)c1[N+](=O)[O-] | – | inactive: 2.49% |
| COC(=O)c1sccc1NC(=O)c1ccc2c(c1)OCO2 | inconclusive: 28.2 µM [inhibitor, single point] | – |
| Cc1ccc(Cn2ccc(NC(=O)c3cc(-c4ccc(F)cc4)on3)n2)cc1 | inconclusive: 12.6 µM [inhibitor, single point] | – |

| Structure (SMILES) | Potency | activity, negative = IMPase inhibition |
| --- | --- | --- |
| N#CC1=C2SCN(Cc3ccccc3)CN2C(=O)CC1c1cccs1 (centres undefined) | active: 11.2 µM | – |
| O=C(Nc1cccc(C(F)(F)F)c1)c1scc2c1OCCO2 | inconclusive: 5.01 µM [inhibitor, single point] | – |
| Cn1c(N2CCCCC2)nc2c1c(=O)[nH]c(=O)n2C | – | inactive: 7.1% [at 38.3 µM] |
| CCN(C(=O)CSc1nc2nc(C)cc(C)n2n1)c1ccccc1 | – | inactive: 27.6% [at 38.3 µM] |
| Cn1/c(=N/N=C/c2ccc(Cl)c([N+](=O)[O-])c2)sc2ccccc21 | inconclusive: 22.4 µM [inhibitor, single point] | – |
| Cc1cccn2c(CNCCCn3ncc4ccccc43)c(C(=O)N3CCCCC3)nc12 | – | inactive: 7.17% |
| O=C(CCCSc1nc2ccccc2[nH]1)Nc1nnc(C2CC2)s1 | – | inactive: 0.394% |
| Brc1cc(Br)c2ncnc(N3CCCCC3)c2c1 | active: 12.6 µM | – |
| CCOc1ccc(CN(C(=O)c2ccco2)C2CCS(=O)(=O)C2)cc1 (centres undefined) | inconclusive: 0.355 µM [inhibitor, partial curve, poor fit] | – |
| COc1ccc(CC(=O)Nc2ccc(-c3cn4ccccc4n3)cc2)cc1 | inconclusive: 10 µM [inhibitor, single point] | – |
| O=C(Nc1ccccc1N1CCOCC1)c1cc(Br)c(Br)s1 | inconclusive: 28.2 µM [inhibitor, single point] | – |
| CCCc1cc(=O)oc2c(CN3CCCC3)c(O)ccc12 | inconclusive: 11.2 µM [inhibitor, partial curve] | – |
| O=C(CC(=O)NC1CCCCC1)N/N=C/c1ccc(Cl)cc1 | inconclusive: 28.2 µM [inhibitor, single point] | – |
| O=c1c(CCc2ccccc2)nc2cnc(N3CCOCC3)nc2n1C[C@H]1CCCO1 | inconclusive: 15.8 µM [inhibitor, single point] | – |
| Cc1ncsc1CCOC(=O)c1ccc([N+](=O)[O-])cc1 | – | inactive: 26.7% |
| O=C(Nc1ccccc1)Nc1cc(S(=O)(=O)N2CCOCC2)ccc1N1CCCC1 | inconclusive: 28.2 µM [inhibitor, single point] | – |
| COC(=O)c1sc2nc(SCc3ccccc3C)n(N)c(=O)c2c1C | inconclusive: 20 µM [inhibitor, partial curve, poor fit] | – |
| CN(C)CCN1C(=O)C(O)=C(C(=O)c2cc3ccccc3o2)C1c1ccccn1 (centres undefined) | inconclusive: 10 µM [inhibitor, partial curve] | – |
| COc1cc(OC)cc(C(=O)NCc2ccc3[nH]c(C)cc3c2)c1 | inconclusive: 15.8 µM [inhibitor, partial curve] | – |
| O=C(CSc1nc2ccccc2c(=O)[nH]1)c1ccccc1 | inconclusive: 28.2 µM [inhibitor, single point] | – |
| Cc1ccccc1OCC(=O)NN1CCN(C)CC1 | – | inactive: -3.6% |
| COCCCn1c(=N)c(C(=O)NCC2CCCO2)cc2c(=O)n3ccccc3nc21 (centres undefined) | inconclusive: 22.4 µM [inhibitor, single point] | – |
| CCOc1ccc(NS(=O)(=O)c2ccc3[nH]cc(C(=O)NCC4CCCO4)c(=O)c3c2)cc1 (centres undefined) | inconclusive: 31.6 µM [inhibitor, single point] | – |

| Structure (SMILES) | Potency | activity, negative = IMPase inhibition |
| --- | --- | --- |
| Cc1cc(C)c(C#N)c(SCc2ccc(F)cc2)n1 | inconclusive: 28.2 µM [inhibitor, single point] | – |
| COC(=O)c1ccc(CSc2nc(N3CCOCC3)c3c(c2C#N)CC(C)(C)OC3)o1 | inconclusive: 28.2 µM [inhibitor, single point] | – |
| COCCNc1nc2c(S(=O)(=O)c3cc(C)ccc3C)nnn2c2ccccc12 | inconclusive: 14.1 µM [inhibitor, single point] | – |
| COc1ccc(C(CNC(=O)c2ccc(S(=O)(=O)N(C)C)cc2)N(C)C)cc1 (centres undefined) | – | inactive: 11.7% |
| CN1C(=O)NC(c2ccccc2)C2=C1CN(c1ccc3ccccc3c1)C2=O (centres undefined) | inconclusive: 31.6 µM [inhibitor, single point] | – |
| CCc1ccc2oc(C(=O)Nc3ccc(S(N)(=O)=O)cc3)c(C)c2c1 | inconclusive: 20 µM [inhibitor, partial curve, poor fit] | – |
| CCOC(=O)c1c(NC(=O)c2cccs2)sc(C)c1C | inconclusive: 31.6 µM [inhibitor, single point] | – |
| COC(=O)c1ccc(OCC(=O)Nc2nn(-c3ccccc3)nc2C(N)=O)cc1 | inconclusive: 12.6 µM [inhibitor, single point] | – |
| CCCC(=O)NCc1ccncc1 | – | inactive: -2.06% |
| CCOC(=O)N1CCN(S(=O)(=O)c2ccc(C(=O)Nc3nc4ccccc4s3)cc2)CC1 | inconclusive: 28.2 µM [inhibitor, single point] | – |
| O=C(Nc1ccc(F)cc1F)c1cc(=O)n(-c2ccccc2)c(=O)[nH]1 | – | inactive: 20.5% |
| CCOC(=O)c1sc2ncnc(NCc3ccco3)c2c1C | inconclusive: 28.2 µM [inhibitor, single point] | – |
| C#CCSc1nc(-c2ccccc2)cc(C(F)(F)F)c1C#N | inconclusive: 14.1 µM [inhibitor, single point] | – |
| Cn1c(=O)c(=O)n(C)c2cc(S(=O)(=O)NCc3ccc(Cl)cc3)ccc21 | inconclusive: 28.2 µM [inhibitor, single point] | – |
| COc1ccc(-n2c(Cc3cc(=O)[nH]c(=O)[nH]3)nnc2SCC(=O)N2CCC(C)CC2)cc1 | inconclusive: 22.4 µM [inhibitor, single point] | – |
| CC1(C)CC(=O)C2=C(C1)Nc1[nH]c(=S)[nH]c(=O)c1C2c1ccccc1 (centres undefined) | inconclusive: 11.2 µM [inhibitor, partial curve] | – |
| O=C(Oc1ccc(-c2cnc3ccccc3n2)cc1)c1ccc(Br)o1 | inconclusive: 28.2 µM [inhibitor, single point] | – |
| COc1cc2c(cc1NC(=O)COc1ccccc1OC)oc1ccccc12 | inconclusive: 14.1 µM [inhibitor, single point] | – |
| O=C(c1cnccn1)N1CCC2(CCN(Cc3nccs3)CC2)CC1 | inconclusive: 11.2 µM [inhibitor, single point] | – |
| O=C(CSc1nnc(NC(=O)c2ccco2)s1)Nc1ccc(F)cc1 | inconclusive: 12.6 µM [inhibitor, single point] | – |
| Cc1sc2nc(-c3ccccc3)oc(=O)c2c1C | inconclusive: 28.2 µM [inhibitor, single point] | – |
| CCc1ccc(OCC(=O)Nc2ccc(-c3nc4ccccc4o3)c(O)c2)cc1 | active: 5.62 µM | – |
| Cc1ccc(-c2cc(C(=O)NN3CCOCC3)c3cc(Br)ccc3n2)o1 | – | inactive: -12.3% |
